# Test results as given in publication PMC4336329 (PLoS ONE, 2015).
# About 2,200 (0.71%) of roughly 310,000 compounds showed an effect of 50% or more. The effect is printed as a negative number. Some of the results follow.
# Biological target: human ether-à-go-go-related gene (hERG) potassium channel (human, UniProt Q12809)
# Assay: primary screen, population patch clamp on CHO cells stably expressing hERG
# Sequence of human ether-à-go-go-related gene (hERG) potassium channel (Q12809 whole entry, looked up): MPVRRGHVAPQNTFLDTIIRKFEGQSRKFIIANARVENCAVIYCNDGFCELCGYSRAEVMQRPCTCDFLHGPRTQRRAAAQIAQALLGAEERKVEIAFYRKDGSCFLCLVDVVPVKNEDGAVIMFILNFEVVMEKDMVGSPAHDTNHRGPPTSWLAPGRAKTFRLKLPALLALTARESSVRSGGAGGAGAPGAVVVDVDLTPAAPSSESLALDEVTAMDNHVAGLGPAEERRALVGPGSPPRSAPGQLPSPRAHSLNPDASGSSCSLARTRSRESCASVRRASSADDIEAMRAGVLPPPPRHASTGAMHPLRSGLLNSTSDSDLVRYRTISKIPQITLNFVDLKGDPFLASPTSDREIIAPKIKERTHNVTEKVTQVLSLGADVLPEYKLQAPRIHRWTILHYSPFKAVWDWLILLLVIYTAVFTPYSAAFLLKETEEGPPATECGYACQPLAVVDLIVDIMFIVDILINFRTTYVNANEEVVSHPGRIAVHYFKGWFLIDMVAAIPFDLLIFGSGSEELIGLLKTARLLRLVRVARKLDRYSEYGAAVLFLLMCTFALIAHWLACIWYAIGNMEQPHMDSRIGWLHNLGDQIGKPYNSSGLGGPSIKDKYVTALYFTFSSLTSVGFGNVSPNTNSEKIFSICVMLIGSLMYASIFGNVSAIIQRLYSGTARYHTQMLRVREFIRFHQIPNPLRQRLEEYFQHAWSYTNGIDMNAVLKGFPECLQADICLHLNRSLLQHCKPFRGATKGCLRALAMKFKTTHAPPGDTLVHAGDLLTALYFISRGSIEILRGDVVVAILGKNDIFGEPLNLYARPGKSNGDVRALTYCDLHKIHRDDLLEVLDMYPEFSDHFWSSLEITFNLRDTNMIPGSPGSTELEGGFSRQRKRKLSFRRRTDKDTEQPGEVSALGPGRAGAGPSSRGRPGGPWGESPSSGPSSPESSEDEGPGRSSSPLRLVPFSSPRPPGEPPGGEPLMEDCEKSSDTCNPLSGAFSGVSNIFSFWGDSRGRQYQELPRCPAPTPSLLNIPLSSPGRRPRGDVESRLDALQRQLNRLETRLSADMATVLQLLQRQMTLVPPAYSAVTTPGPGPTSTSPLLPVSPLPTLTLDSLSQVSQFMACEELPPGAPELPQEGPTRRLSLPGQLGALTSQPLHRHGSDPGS
row,Structure (SMILES),"hERG current change (%, negative = inhibition) at 1uM"
1,Nc1cc(=O)[nH]c(SCc2nnc(-c3ccccc3)o2)n1,7.82%
2,O=C(O)c1ccc(-n2nnnc2Oc2cccc3cccnc23)cc1,10.9%
3,O=C(Nc1ccon1)c1sc2cc(Cl)ccc2c1Cl,15.6%
4,Cc1cccc(NC(=S)NC2CC3CCC(C2)N3Cc2ccco2)c1 (stereo not drawn),-15.7%
5,Cc1ccc(NC(=O)c2ccccc2SCC(=O)N2CCCC2)cc1S(=O)(=O)N(C)C,10.7%
6,Cc1ccc(N(C(=O)c2csnn2)C(C(=O)NC2CCCCC2)c2ccncc2)c(C)c1 (stereo not drawn),12.7%
7,COc1ccc(Cl)cc1NC(=O)CN1C(=O)CC(C)S(=O)(=O)c2ccccc21 (stereo not drawn),4.52%
8,NC(=O)C1CCN(C(=O)CCc2nc3sc4c(c3c(=O)[nH]2)CCCC4)CC1,0.0328%
9,CC(C)(C)C1CCC(=O)C(C2(O)C(=O)Nc3ccccc32)C1 (stereo not drawn),12.7%
10,C=CCn1c(Cc2csc(N)n2)nnc1SCC(=O)OCC,4.63%
11,COc1ccc(CN2CC[C@H]3C=CC[C@@H](C(=O)N4CCOCC4)[C@H]3C2=O)cc1OC,9.79%
12,CCC1Oc2ccccc2N(CC(=O)NCCN2CCc3ccccc3C2)C1=O (stereo not drawn),0.326%
13,CCOCCCN(C(=O)CCC(=O)Nc1cc(C)on1)C(C(=O)NC(C)(C)CC)c1cccc(OC)c1OC (stereo not drawn),11.5%
14,Cc1nc2ccccc2c(C)c1C(=O)c1ccccc1.Cl,11%
15,O=C1C2CC=C(Cl)CC2C(=O)N1CC1Cc2ccccc2CO1 (stereo not drawn),10.5%
16,CC/C(=N\NC(=S)Nc1ccccc1)c1c(O)[nH]c(=O)[nH]c1=O,18.1%
17,NC(=O)Oc1cccc(OC(N)=O)c1,12.4%
18,COc1cc(C)c(C)cc1S(=O)(=O)N1CCCc2ccccc21,9.49%
19,CNC(=S)N/N=C(\C)c1ccc(Cl)s1,4.12%

row,Structure (SMILES),"hERG current change (%, negative = inhibition) at 1uM"
1,CCC/C(=N/NC(=O)c1csc(C)c1C)c1ccc(Cl)s1,12.6%
2,CN(C)/C=C/C(=O)c1ccncc1,14%
3,O=C(CN1CCN(S(=O)(=O)c2ccc(F)cc2)CC1)Nc1ccc(F)cc1F,-36.4%
4,COc1ccc(N(CC(=O)NC(C)(C)C)C(=O)c2ccco2)cc1,4.11%
5,CN1CCN(CCc2nc3cc(NC(=O)c4ccco4)ccc3n2C)CC1,13.1%
6,Cc1ccc(Nc2nc(N)nc(CSc3nccn3C)n2)cc1,0.957%
7,COc1ccc(-c2nc(CS(=O)(=O)CC(=O)NCCCN3CCOCC3)c(C)o2)cc1,11.2%
8,CCC1CCc2c(n(C)c3ccccc3c2=O)O1 (stereo not drawn),8.75%
9,CCCCOCCCNC(=O)c1ccc(OC)cc1,8.78%
10,CSc1nc(NS(=O)(=O)c2cc(C)c(Cl)cc2Cl)nn1C,8.02%
11,Cc1ccc(C(C)NC(=O)c2ccncc2)c(C)c1 (stereo not drawn),11.3%
12,CCc1ccc(NC(=O)CS(=O)CC(=O)NC(C)CCc2ccco2)cc1 (stereo not drawn),15.1%
13,O=c1c2ccccc2nc(CSc2nnnn2-c2ccccc2)n1-c1ccccc1Cl,16%
14,Cc1ccc(NC(=O)c2ccc([N+](=O)[O-])o2)c(C)c1,13.3%
15,Cc1ccc(NC(=O)CSc2nnc(COc3ccccc3C)o2)cc1,3.88%
16,O=C(OCC(=O)N1CCN(C(=O)c2ccco2)CC1)c1cc(-c2ccco2)nc2ccccc12,-38.3%
17,Cc1cccc(-n2c(O)c(C=NCCN3CCNCC3)c(=O)[nH]c2=S)c1,11.9%
18,COc1cc(/C=N/N2C(=O)C3C4c5ccccc5C(c5ccccc54)C3C2=O)ccc1O (stereo not drawn),7.17%
19,O=C(CSc1nnc(CNC(=O)c2ccccc2)o1)NCc1ccccc1,10.2%

row,Structure (SMILES),"hERG current change (%, negative = inhibition) at 1uM"
1,CCCc1c(C(=O)Nc2cc(C(C)(C)C)on2)cnn1-c1ccccc1,8.13%
2,O=C1NCC(c2ccccc2)C1C(=O)N/N=C\c1ccc(-c2cccc(Cl)c2Cl)o1 (stereo not drawn),12.3%
3,COc1cc(/C=N/NC(=O)c2nnn(-c3nonc3N)c2C(C)C)ccc1OCc1ccccc1,14.8%
4,CCOc1ccccc1NC(=O)CSc1nc(N)c(C#N)cc1C#N,11.7%
5,COc1ccc(C(=O)COC(=O)c2nn(C)cc2Cl)cc1,20.8%
6,O=c1c2ccccc2nnn1CSc1nc2ccccc2c(=O)n1Cc1ccco1,13.6%
7,CC(C)N1C(=S)N(Cc2ccco2)C(=O)C1CC(=O)Nc1ccccc1 (stereo not drawn),9.52%
8,CN1CCCC1CCNc1ccc2c(=O)c3ccccc3oc2c1 (stereo not drawn),6.78%
9,CCCCCN(C(=O)CCC(=O)OCC(=O)N1CCC(C)CC1)c1c(N)n(CCCC)c(=O)[nH]c1=O,6.49%
10,Br.CC(C)(C)C(=O)CNCC(=O)C(C)(C)C,0.344%
11,O=C(CN1CCCCCC1)Nc1ccccc1.O=C(O)C(=O)O,10.2%
12,CCOC(=O)N1CCN(C(=O)c2ccc(CNS(=O)(=O)c3ccc(OC)cc3)cc2)CC1,3.7%
13,COC(=O)c1ccc(C)c(NC(=O)CSc2sc3c(O)cc(=O)[nH]c3c2C#N)c1,0.111%
14,COc1ccccc1OCC(=O)Nc1nc(C)c(C)s1,13.7%
15,Cc1noc(/C=C/c2ccco2)c1S(=O)(=O)N1CCC(C(=O)N2CCc3ccccc3C2)CC1,1.69%
16,COc1ccc(C(C[N+](=O)[O-])c2c(C)[nH]c3ccccc23)cc1OC (stereo not drawn),24.1%
17,Cc1nn(CCCC(=O)Nc2cccnc2Cl)c(C)c1[N+](=O)[O-],13.3%
18,CCCc1nnc(SCC(=O)O)n1/N=C/c1ccc2c(c1)OCO2,-1.6%
19,COc1cccc(-c2nc(CS(=O)(=O)CC(=O)NC3CCCCCC3)c(C)o2)c1,12.1%
